About 540 (0.36%) of roughly 150,000 compounds showed an effect of 50% or more. This is one part of the list.

The test system of the test is Plasmodium falciparum. Description: Primary screen in NF54 nanoGlo assay, in single point, at 2uM, 72h; a lower Z score goes with more inhibition. Type of test: functional, Erythrocyte. To be noted: timepoint 72 hour.
In the case of `C1=CCN(c2nc(-c3ccncc3)nc3c2CCNCC3)C1`, the “% Inhibition” value is -5% and the Z score worked out at 1.03.

With `COc1c(C(=O)Nc2cccc(F)c2)oc2ccc(NC(=O)C3CCCCC3)cc12`, the “% Inhibition” value is on record as -8% and the Z score turned out to be 1.57.

In the case of `Cc1nc(C(C)C)ncc1C(=O)N1CC[C@@H](CO)[C@@H](O)C1`, the “% Inhibition” value is listed as -12% and the Z score was 1.42.

As to `CN(C)c1ccc(C(=O)N2CCC(Cn3nc4c(cc3=O)CCC4)CC2)nn1`, the “% Inhibition” value is on record as -6% and the Z score is on record as 0.85.

As for `CN(C[C@H]1CC(=O)N(C(C)(C)C)C1)C(=O)c1cnc(N)s1`, the “% Inhibition” value was -7% and the Z score worked out at 1.41.

In the case of `CCN(CCOC(=O)Nc1ccccc1F)c1ccccc1`, the “% Inhibition” value was determined as 3% and the Z score is recorded as -0.5.

`COc1ccccc1-c1cc2nc(C)cc(N3CCN(C4CCCCC4)CC3)n2n1`: the “% Inhibition” value was -7% and the Z score came out at 1.4.

As for `Cc1ccc(-c2ccc(C)nn2)c(-n2cccn2)c1`, the “% Inhibition” value is recorded as -10% and the Z score is listed as 1.08.

As to `CCn1c([C@H]2CCCN(C(=O)c3ccc4c(=O)n(C)cnc4c3)C2)n[nH]c1=O`, the “% Inhibition” value was -13% and the Z score stood at 1.63.

Turning to `N#Cc1cc2cc(Cl)cnc2nc1N1CCCCC1`, the “% Inhibition” value was 39% and the Z score is given as -4.97.

For the compound `CNc1nc(C(=O)NCc2cnn(C(C)C)c2)cs1`, the “% Inhibition” value is -6% and the Z score came to 0.67.

In the case of `CCCc1nnc(N2CCC(OCCN(C)C)CC2)o1`, the “% Inhibition” value is recorded as -4% and the Z score is recorded as 0.81.

For the compound `Cc1cc([C@@H](C)C(=O)N2CCN(CCO)CC2)c(C)o1`, the “% Inhibition” value is -8% and the Z score came to 1.05.

As to `O=S(=O)(Nc1ccccn1)N1CCCC1`, the “% Inhibition” value is recorded as -5% and the Z score is reported as 0.82.

`CCc1csc(CCNC(=O)c2c[nH]nc2-c2ccccc2)n1`: the “% Inhibition” value is -13% and the Z score is reported as 1.27.

For the compound `CC(C)c1noc(CN2CCC[C@H]2c2ccsc2)n1`, the “% Inhibition” value was found to be 9% and the Z score is recorded as -1.34.

Regarding `COc1cncc(C(NC(=O)CCN2Cc3ccccc3C2)[C@H]2C[C@@H](O)C2)c1` (stereo partly specified), the “% Inhibition” value is given as -7% and the Z score was 1.36.

`COc1ccc(CNC(=O)c2ccc(-n3nc4c(c3-c3ccccc3F)CCCC4)cc2)cc1`: the “% Inhibition” value is on record as 0% and the Z score is reported as -0.04.

For `O=C(NC[C@H]1CCCO1)C1CCN(Cn2ncc3ccccc3c2=O)CC1`, the “% Inhibition” value is recorded as 0% and the Z score is reported as 0.04.

`Cc1nc(C(=O)N(Cc2ccc(F)cc2)CC2CC2)ccc1C(=O)O`: the “% Inhibition” value came out at 3% and the Z score is on record as -0.47.

Regarding `CC(C)(NC[C@]1(O)CCCN(Cc2cccc(F)c2F)C1=O)c1ccccc1`, the “% Inhibition” value is -10% and the Z score is 1.22.

Take `COCCCNc1nc2c(cc1C#N)CCC2`: the “% Inhibition” value is on record as -4% and the Z score is 0.76.

In the case of `Cc1sc(NC(=O)c2ccc3c(c2)OCCO3)c(C(=O)NCc2cccnc2)c1C`, the “% Inhibition” value is given as -26% and the Z score came to 2.95.

For `CCCc1nnsc1C(=O)NCC#CCN(C)Cc1ccccc1`, the “% Inhibition” value turned out to be 2% and the Z score is reported as -0.28.

With `COCCOCc1nc([C@@H]2CCCCN2C(=O)Nc2ccccc2F)no1`, the “% Inhibition” value amounted to 1% and the Z score was -0.2.

`CC[C@H](OC)C(=O)Nc1nn(Cc2ccccc2)c2cccc(N3CCOCC3)c12`: the “% Inhibition” value is listed as 12% and the Z score is on record as -1.54.

Consider `O=C(NCc1cc(-c2cccc(F)c2)no1)c1cnc[nH]1`, for which the “% Inhibition” value was -8% and the Z score is listed as 1.19.

With `C=C1C2CCC3(C4C[C@@H]5[C@@]6(C)CCC[C@]5(C3[C@H]2O)[C@@H]4N(CC)C6)[C@@H]1O` (stereo partly specified), the “% Inhibition” value was 31% and the Z score is recorded as -3.48.

On to `Cn1cccc(C(=O)N2CCCC[C@H]2c2cc(C(N)=O)[nH]n2)c1=O`, for which the “% Inhibition” value is 13% and the Z score is reported as -1.73.

`Cc1cccc2c1ncn1nc(-c3ccoc3)nc21`: the “% Inhibition” value amounted to 0% and the Z score is -0.06.

As for `Fc1ccc(Br)cc1Cn1nnc(C2CCOCC2)n1`, the “% Inhibition” value is -2% and the Z score is on record as 0.36.

Turning to `COc1cccc(C(=O)N(Cc2ccc(C)cc2)c2cccc(CC(=O)N(C)Cc3ccccc3)c2)c1`, the “% Inhibition” value is reported as -13% and the Z score is 1.66.

With `CC(C)(C)n1nnc(CNc2ccc(CCO)nc2)n1`, the “% Inhibition” value is given as 6% and the Z score was -1.16.

Take `COC[C@H]1[C@H](NC(=O)c2cc(=O)[nH]c3ccccc23)[C@H]2CCO[C@H]21`: the “% Inhibition” value is given as -8% and the Z score came out at 1.02.

With `CCOc1ccc(-c2nc(CON=C(N)CN(C)C)co2)cc1`, the “% Inhibition” value is listed as -3% and the Z score is listed as 0.59.

Consider `CCOC[C@H]1CCN(C(=O)C2CCN(c3ccc(C)cn3)CC2)C1`, for which the “% Inhibition” value is -4% and the Z score was found to be 0.53.

For the compound `COc1ccccc1N1CCN(C(=O)Cn2ncc3c([nH]c4ccccc43)c2=O)CC1`, the “% Inhibition” value is recorded as 10% and the Z score was -1.58.

Regarding `Cc1ccc(CN2C(=O)[C@@H]3CC[C@H]2C3)c2ccccc12`, the “% Inhibition” value is 3% and the Z score is recorded as -0.44.

As to `N#CC1(NC(=O)c2ncoc2-c2cccs2)CCCC1`, the “% Inhibition” value is -2% and the Z score is 0.31.

On to `Cc1cccc([C@H]2C(=O)NCCN2Cc2cc(C(=O)O)cs2)c1`, for which the “% Inhibition” value stood at 0% and the Z score is -0.01.

On to `COCCn1cc(NC(=O)N(C2CC2)[C@@H](C)C2CC2)cn1`, for which the “% Inhibition” value is 1% and the Z score is -0.1.

Turning to `CCCNC(=O)N(C)CCc1c(C)nn(CC)c1C`, the “% Inhibition” value is reported as -4% and the Z score was determined as 0.46.

Take `COCC(=O)Nc1ccc(OC)cc1Br`: the “% Inhibition” value was -3% and the Z score is reported as 0.4.

For orientation: % Inhibition means the relative decrease from the control value, in per cent.
